# According to the supplement of paper PMC12355420:
# Counter-ions that a name gives are not always drawn. This is one part of the list. Repeats are few or missing, and single values can be far off.
# Test system: HeLa VPS33A KO + NLuc-VPS33A R498W
# Assay: relative mutant VPS33A R498W amount (NanoLuc luminescence) vs DMSO (fraction of DMSO); HeLa model of a glycosaminoglycan (GAG) storage disease; KI is knock-in and KO knock-out; SDC1 is syndecan 1; higher = higher mutant VPS33A level
# Settings: 50 µM; 24 h
# 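Also: screen of an FDA-approved drug library, NanoLuc luminescence read after lysing the treated cells, taken as a measure of mutant VPS33A protein stability.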
row,SMILES,relative mutant VPS33A R498W amount
1,O=c1[nH]c(=O)n([C@H]2C[C@H](O)[C@@H](CO)O2)cc1F [Floxuridine],0.73
2,CCCN1CCCC[C@H]1C(=O)Nc1c(C)cccc1C [Ropivacaine hydrochloride monohydrate],1.11
3,O=C(OCc1ccccc1)c1ccccc1 [Benzyl benzoate],1.13
4,Cc1cc2c(cc1S(N)(=O)=O)S(=O)(=O)CCC2 [Meticrane],0.971
5,Cc1cn[nH]c1 [Fomepizole],1.09
6,NC(=O)C[C@H](N)C(=O)O [L-Asparagine],1.14
7,COc1cc(C(=O)O)ccc1O [Vanillic acid],0.917
8,CCCc1nn(C)c2c(=O)[nH]c(-c3cc(S(=O)(=O)N4CCN(C)CC4)ccc3OCC)nc12 [Sildenafil],1.21
9,Nc1ccn([C@H]2CC[C@@H](CO)O2)c(=O)n1 [Zalcitabine],1.37
10,CC(=O)NCCCS(=O)(=O)O [Acamprosate calcium],0.938
11,Cc1cc(=O)n(-c2ccccc2)n1C [Antipyrine],1.17
12,CC[C@@H]1C(=O)OC[C@@H]1Cc1cncn1C [Pilocarpine HCl],0.895
13,O=C(CCc1ccc(O)cc1)c1c(O)cc(O)cc1O[C@@H]1OC(CO)[C@@H](O)[C@@H](O)C1O (some centres not stated) [Phloridzin],1.34
14,COc1ccc2c(c1OC)C(=O)O[C@@H]2[C@H]1c2c(cc3c(c2OC)OCO3)CCN1C [Noscapine HCl],0.793
15,COc1ccc2c3c1O[C@H]1C[C@@H](O)C=C[C@@]31CCN(C)C2 [Galanthamine],1.03
16,C/C1=C2N=C(/C=C3N=C(/C(C)=C4\[N-]C(C(CC(N)=O)C4(C)CCC(=O)NCC(C)OP(=O)([O-])OC4C(CO)OC(n5cnc6cc(C)c(C)cc65)C4O)C4(C)N=C1C(CCC(N)=O)C4(C)CC(N)=O)C(CCC(N)=O)C\3(C)C)C(CCC(N)=O)C/2(C)CC(N)=O.[CH3-].[Co+3] (configuration not stated) [Methylcobalamin],1.24

row,SMILES,relative mutant VPS33A R498W amount
1,O=C1[C@@H]2[C@H]3CC[C@H](C3)[C@@H]2C(=O)N1C[C@@H]1CCCC[C@H]1CN1CCN(c2nsc3ccccc23)CC1 [Lurasidone HCl],0.768
2,C[C@H](O)[C@H](O)[C@H]1CNc2nc(N)[nH]c(=O)c2N1 [tetrahydro-L-Biopterin (hydrochloride)],1.82
3,O=C(/C=C/c1ccc(O)c(O)c1)O[C@H](Cc1ccc(O)c(O)c1)C(=O)O [Rosmarinic acid],1.34
4,CC(=O)Nc1nnc(S(N)(=O)=O)s1 [Acetazolamide],1.28
5,CC(C)(C)NC(=O)N[C@H](C(=O)N1C[C@H]2[C@@H]([C@H]1C(=O)NC(CC1CCC1)C(=O)C(N)=O)C2(C)C)C(C)(C)C (some centres not stated) [Boceprevir],0.825
6,NC[C@@H]1O[C@H](O[C@H]2[C@@H](O)[C@H](O[C@@H]3[C@@H](O)[C@H](N)C[C@H](N)[C@H]3O[C@H]3O[C@H](CO)[C@@H](O)[C@H](O)[C@H]3N)O[C@@H]2CO)[C@H](N)[C@@H](O)[C@@H]1O [Paromomycin Sulfate],0.97
7,Nc1c(CC(=O)O)cccc1C(=O)c1ccccc1 [Amfenac Sodium Monohydrate],1.01
8,C[N+](C)(CCOc1ccccc1)Cc1ccccc1.O=C([O-])c1cc2ccccc2cc1O [Bephenium Hydroxynaphthoate],0.604
9,CCCCCCCCCCCCCCCC(=O)O [Palmitic acid],1.66
10,OC[C@H]1O[C@H](OCC2O[C@@H](O)[C@H](O)[C@@H](O)[C@@H]2O)[C@H](O)[C@@H](O)[C@H]1O (some centres not stated) [Melibiose],1.33
11,Cc1ccc(Nc2nccc(N(C)c3ccc4c(C)n(C)nc4c3)n2)cc1S(N)(=O)=O,1
12,CCCCS(=O)(=O)N[C@@H](Cc1ccc(OCCCCC2CCNCC2)cc1)C(=O)O [Tirofiban hydrochloride monohydrate],1.47
13,OCCOCCN1CCN(C2=Nc3ccccc3Sc3ccccc32)CC1 [Quetiapine],0.571
14,Oc1ccc([C@H]2COc3cc(O)ccc3C2)cc1 [Equol],0.941
15,C[C@]12C=CC(=O)C=C1CC[C@@H]1[C@@H]2[C@@H](O)C[C@@]2(C)[C@H]1CC[C@]2(O)C(=O)CO [Prednisolone],0.92
16,CC(C)n1c(/C=C/C(O)CC(O)CC(=O)O)c(-c2ccc(F)cc2)c2ccccc21 (configuration not stated) [Fluvastatin Sodium],2.48
